From PMC9933715 (Antimicrobial Agents and Chemotherapy, 2023)

What was measured:
[1] = system: sg-DENV-R2A subgenomic replicon; conditions: Huh7.5; for decrease of sg-DENV-R2A replication: 50 μM, treated for 2 days
sg-DENV-R2A GND = conditions: 50 μM, 4 h posttransfection, vs DMSO
DENV-R2A full RNA genome = conditions: NPP3C/6A1HI 50 μM, NITD008 10 μM, Huh7.5
[2] = system: DENV-R2A (Rluc-expressing DENV, serotype 2 strain 16681); format: cell-based, Dengue virus; conditions: NITD008 10 μM, Huh7.5

Structure (SMILES) | decrease of sg-DENV-R2A replication [1] | Rluc activity as read-out of viral RNA translation (sg-DENV-R2A GND) | DENV replication after electroporation of full-length DENV-R2A vRNA (DENV-R2A full RNA genome) | inhibition of DENV replication (internal control) [2] | sg-DENV-R2A replication under control inhibitor ([1]; NITD008 10 μM)
CC(=O)c1ccc2cn[nH]c2c1 [Compound 6A1HI, 6-acetyl-1H-indazole] | ~2.7 Log10 | remained unchanged | severely impacted |  | 
C#C[C@@]1(O)[C@H](O)[C@@H](CO)O[C@H]1n1ccc2c(N)ncnc21 [NITD008, reference compound] |  |  | almost completely abrogated | potently inhibited DENV replication | very little replication, if any
O=C(Nc1ccccc1)c1cccnc1 [NPP3C, N-phenylpyridine-3-carboxamide] | approximately 1.3 Log10 | remained unchanged | severely impacted |  | 
